Laboratory results published in PubChem BioAssay AID1347417 (National Center for Advancing Translational Sciences (NCATS), 2020).
About 5,300 (4.4%) of roughly 120,000 compounds were called active. This list was built around the results that the source calls inconclusive (neither active nor inactive); the mix of calls is not that of the screen. The call rests on the fitted dose curve; in most records, active means well fitted inhibition curve with a large enough effect; inconclusive means small, poorly fitted or top-dose-only effect; inactive means no such curve, though single readings can be large or run the other way. Potencies of inconclusive entries are doubtful fits and often do not repeat.

assay: qHTS Primary assay for Inhibitors of Plasmodium falciparum Dd2 growth in vitro; further: nearly all actives have a fitted effect of over 65% in size;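 on activity, negative = inhibition: plate controls were DMSO vehicle for no effect and reference drug for full effect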; conditions: P. falciparum Dd2 growth, SYBR Green, 72 h; activity, negative = inhibition: at 28.9 µM (top of the series) unless noted; series mostly up to 28.9 µM
How it was run: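 Readout: SYBR Green fluorescence, 485 nm excitation, 535 nm emission, after ~16 h lysis at 37C. Before that, Dd2-infected red cells (2.5% hematocrit) grew 72 h with compound, 29 uM top final concentration.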
Potency means the concentration at half of the fitted maximal effect; tags describe the fitted curve by direction and shape.

Question: With `Cc1ncsc1CN1CCC2(CC1)c1[nH]c3ccccc3c1CCN2C` as the molecule, how does the Potency read?
Answer: inconclusive: 10 µM [inhibitor, partial curve, poor fit]

Question: For `COCCNC(=O)[C@H]1C[C@H](Oc2cccnc2)CN1C(=O)Nc1cccc(F)c1`, which “activity, negative = inhibition” value is on record?
Answer: inactive: 7.28%

Question: With `CCCC(=O)N1Cc2ccccc2CC2(CCN(CCC)C2)C1` (stereo unspecified) as the molecule, how does the Potency read?
Answer: inconclusive: 6.31 µM [inhibitor, partial curve, poor fit]

Question: With `O=C(CC1=C2CCCCC2N(Cc2ccccc2)C1=O)NC1CC1` (stereo unspecified) as the molecule, how does the “activity, negative = inhibition” value read?
Answer: inactive: -2.68%

Question: Which Potency does the source give for `Clc1cccc(CSc2nc(NCCc3ccccc3)c3ccccc3n2)c1` here?
Answer: inconclusive: 10 µM [inhibitor, single point]

Question: With `COC(=O)[C@@H]1Cc2c([nH]c3ccccc23)[C@H]2C[C@@H](NCCO)C[C@@H](c3ccccc3)N21` as the molecule, how does the Potency read?
Answer: inconclusive: 7.94 µM [inhibitor, partial curve, poor fit]

Question: With `Cc1nn(C)c(C)c1CCN(C)C(=O)C1CCCCC(=O)N1` (stereo unspecified) as the molecule, how does the Potency read?
Answer: inconclusive: 1.58 µM [inhibitor, single point]

Question: With `Cc1noc(C)c1S(=O)(=O)N1CC(c2noc(C3CCCN3C)n2)C1` (stereo unspecified) as the molecule, how does the Potency read?
Answer: inconclusive: 10 µM [inhibitor, single point]

Question: With `F[C@@H]1CN(Cc2nccs2)C[C@@H]1OCc1nc2ccccc2[nH]1` as the molecule, how does the “activity, negative = inhibition” value read?
Answer: inactive: 11.5% [at 44.1 µM]

Question: For `CCOc1ccccc1NC(=O)Nc1ccc2nc(N3CCN(C)CC3)cc(C)c2c1`, which Potency is on record?
Answer: active: 0.447 µM

Question: Which Potency does the source give for `CCN(CC)c1ccc(NC(=O)CN(C)S(=O)(=O)c2cccc3nsnc23)c(C)c1` here?
Answer: inconclusive: 15.8 µM [inhibitor, single point]

Question: For `N#Cc1ccccc1CN1CCc2nc(N3CCc4ccccc4C3)[nH]c(=O)c2CC1`, which activity, negative = inhibition is on record?
Answer: inactive: -1.07% [at 5.79 µM]

Question: With `COCC1CN(C)CC12CCN(S(=O)(=O)c1ccc(C#N)cc1)CC2` (stereo unspecified) as the molecule, how does the Potency read?
Answer: inconclusive: 4.47 µM [inhibitor, partial curve, poor fit]

Question: For `COc1ccc(-c2nc3sc(CCNC(=O)Cc4ccc(Cl)cc4)c(C)n3n2)cc1`, which “activity, negative = inhibition” value is on record?
Answer: inactive: 5.62%

Question: Which Potency does the source give for `COCCN1CCNc2nc(COc3cccc(C#N)c3)n(Cc3ccccc3)c2C1=O` here?
Answer: inconclusive: 31.6 µM [inhibitor, single point]

Question: For `O=C(C1COc2ccccc2O1)N1CCc2nc3cc(-c4ccccc4)[nH]n3c(=O)c2C1` (stereo unspecified), which activity, negative = inhibition is on record?
Answer: inactive: -20% [at 5.79 µM]

Question: With `CCNC(=O)Nc1ccc2c(c1)CN(Cc1ccc(Cl)cc1)C(=O)C(C)O2` (stereo unspecified) as the molecule, how does the Potency read?
Answer: inconclusive: 1 µM [inhibitor, partial curve]

Question: With `CCNC(=O)CCC[C@@H]1[C@H]2CCCN3CCC[C@@H](CN1C(C)=O)[C@@H]23` as the molecule, how does the “activity, negative = inhibition” value read?
Answer: inactive: 1.05%

Question: With `COCCNC(=O)c1ccc(CC2CCN(C(=O)CCc3ccc(OC)cc3)CC2)cc1` as the molecule, how does the Potency read?
Answer: inconclusive: 5.62 µM [inhibitor, partial curve, poor fit]

Question: With `COc1nc2nc(CC3CC3)n(C)c2cc1-c1ccnc(C)c1` as the molecule, how does the Potency read?
Answer: inconclusive: 12.6 µM [inhibitor, single point]

Question: Which Potency does the source give for `CCOC(=O)c1ccc(NC(=O)CC2Nc3cccc4cccc(c34)NC2=O)cc1` (stereo unspecified) here?
Answer: active: 10 µM

Question: With `O=C1c2cnc(-c3ccccc3)nc2OCCN1c1cccc(C(F)(F)F)c1` as the molecule, how does the Potency read?
Answer: inconclusive: 35.5 µM [inhibitor, partial curve, poor fit]

Question: Which Potency does the source give for `CN1CCCC2(C1)CN(Cc1cccnc1)c1ccc(C(=O)NCC3CCCCC3)cc12` (stereo unspecified) here?
Answer: inconclusive: 2.24 µM [inhibitor, full curve]

Question: For `COc1ccc(-c2c(C)c3ccc(O)c(CN4CCCCC4)c3oc2=O)cc1OC`, which Potency is on record?
Answer: inconclusive: 12.6 µM [inhibitor, single point]

Question: Which Potency does the source give for `Cc1ccc2nc(N(Cc3cccnc3)C(=O)c3ccco3)sc2c1` here?
Answer: active: 10 µM

Question: With `CCc1ccc(-n2c(SCc3nc(-c4cc(OC)ccc4OC)no3)nnc2-c2ccccc2)cc1` as the molecule, how does the Potency read?
Answer: active: 11.2 µM

Question: Which Potency does the source give for `COc1ccc(C2=CC(c3ccccc3Cl)n3nc(-c4ccc(C)cc4)nc3N2)cc1` (stereo unspecified) here?
Answer: active: 11.2 µM

Question: For `CCc1nnc(SCC(=O)Nc2ccc(Cl)cc2F)c2cc3occc3n12`, which Potency is on record?
Answer: inconclusive: 17.8 µM [inhibitor, single point]

Question: For `CCOC(=O)Cn1c(=O)n(-c2ccccc2OC)c2nc(-c3ccccc3)nc(C(N)=O)c21`, which Potency is on record?
Answer: inconclusive: 8.91 µM [inhibitor, single point]

Question: Which Potency does the source give for `O=C(c1ccco1)N1CCC2(CC1)CC(N(Cc1ccc(F)cc1)C1CC1)CCO2` (stereo unspecified) here?
Answer: active: 2.82 µM

Question: For `COc1ccc(CNC(=O)c2c(C)noc2-c2ccc(OC(F)(F)F)cc2)cc1`, which Potency is on record?
Answer: inconclusive: 3.98 µM [inhibitor, single point]

Question: With `COc1ccccc1-c1ccc(CN2C3CCC2CN(C(=O)c2ccncc2)C3)cc1` as the molecule, how does the activity, negative = inhibition read?
Answer: inconclusive: -38.7% [inhibitor]

Question: For `COc1ccc(OC2CN(CC3CCCCC3)C2)cc1`, which Potency is on record?
Answer: inconclusive: 14.1 µM [inhibitor, single point]

Question: For `COc1ccccc1C(=O)Nc1ccc2c(c1)CN(Cc1ccccc1)C(=O)C(C)O2` (stereo unspecified), which “outcome” value is on record?
Answer: inactive

Question: With `COc1ccc(C(=O)N2CCC(Cn3c(C)cnc3-c3cccnc3)CC2)c(OC)c1` as the molecule, how does the “activity, negative = inhibition” value read?
Answer: inactive: -20.7%

Question: For `C[C@@H](NCC1CCCC1)c1onc(-c2ccc(F)cc2)c1C(=O)O`, which “activity, negative = inhibition” value is on record?
Answer: inactive: 8.69% [at 44.1 µM]

Question: For `COc1ccccc1CN(Cc1ccccc1OC)[C@H]1C[C@@H](Cc2cc(CN3CCOCC3)on2)C1(C)C`, which Potency is on record?
Answer: inconclusive: 2.82 µM [inhibitor, single point]

Question: Which Potency does the source give for `CN1CCCN(S(=O)(=O)c2ccc(C(F)(F)F)cc2)c2ccccc21` here?
Answer: inconclusive: 1.41 µM [inhibitor, partial curve, poor fit]

Question: With `CCC(=O)N1Cc2ccccc2CC2(CCN(Cc3ccccn3)CC2)C1` as the molecule, how does the Potency read?
Answer: inconclusive: 7.08 µM [inhibitor, partial curve, poor fit]

Question: With `Cc1nn(C)c2nc(NCCC(=O)N3CCCC3)sc12` as the molecule, how does the “outcome” value read?
Answer: inactive

Question: Which Potency does the source give for `COc1cccc(C(=O)N2CCOc3ccc(CN4CCc5ccccc5C4)cc3C2)c1` here?
Answer: inconclusive: 1.58 µM [inhibitor, single point]

Question: Which Potency does the source give for `CCCNC(=O)N1CC(C(=O)N(C)C)C2(CCOCC2)C1` (stereo unspecified) here?
Answer: inconclusive: 3.98 µM [inhibitor, single point]

Question: With `COc1ccccc1Nc1ncc2c(n1)CN(C(=O)c1cccc(C#N)c1)CCN2` as the molecule, how does the Potency read?
Answer: inconclusive: 31.6 µM [inhibitor, single point]

Question: With `CN1CCC(N[C@H]2C[C@@H](Cc3cc(-c4ccccc4)on3)C2(C)C)CC1` as the molecule, how does the Potency read?
Answer: active: 3.98 µM

Question: For `Cc1cnc(CC2CCN(C(=O)C3CCC3)C2)n1Cc1ccccc1` (stereo unspecified), which Potency is on record?
Answer: inconclusive: 10 µM [inhibitor, partial curve]

Question: For `COC(=O)C1=C(C)NC(=O)NC1c1cn(-c2ccccc2)nc1-c1ccc(OC)c(Br)c1` (stereo unspecified), which Potency is on record?
Answer: inconclusive: 10 µM [inhibitor, single point]

Question: Which Potency does the source give for `O=C(Nc1nccs1)[C@@H]1C[C@@H](c2cccc(C(F)(F)F)c2)N(CC2CCOCC2)C1` here?
Answer: inconclusive: 3.98 µM [inhibitor, full curve]

Question: Which “activity, negative = inhibition” value does the source give for `CCCn1c(COc2cccc(C)c2)nc2ccccc21` here?
Answer: inactive: -25.9%

Question: With `Cc1cccc(CC(=O)N2CCCC(CN3CCCC3)CC2)c1` (stereo unspecified) as the molecule, how does the “activity, negative = inhibition” value read?
Answer: inactive: -27%

Question: Which Potency does the source give for `COc1ccc(C(=O)N[C@@H]2CN(Cc3cccc(OC)c3)CCC[C@H]2O)cc1` here?
Answer: inconclusive: 1.12 µM [inhibitor, full curve]

Question: For `Cc1c(C(=O)OCc2ccccc2)[nH]c2c1C(=O)CC(c1ccc(N(C)C)cc1)C2` (stereo unspecified), which activity, negative = inhibition is on record?
Answer: inconclusive: -81.1% [inhibitor] [at 5.79 µM]

Question: With `O=C(CCC[C@H]1NC[C@@H]2CC1CN(Cc1ccccc1)C2)NCc1ccc(F)cc1` as the molecule, how does the Potency read?
Answer: inconclusive: 12.6 µM [inhibitor, partial curve, poor fit]

Question: Which “activity, negative = inhibition” value does the source give for `CN(CC1COCCO1)C(=O)c1coc(COc2ccc3c(c2)OCO3)n1` (stereo unspecified) here?
Answer: inactive: 4.58%

Question: Which Potency does the source give for `CC(C)c1cccc(NC(=O)c2ccc(CN3C(=O)NC4(CCOCC4)C3=O)cc2)c1` here?
Answer: inconclusive: 1.58 µM [inhibitor, full curve, poor fit]

Question: With `O=C(NC1CCCCC1)C1CN(C(=O)c2cccc(C(F)(F)F)c2)CC12CCOCC2` (stereo unspecified) as the molecule, how does the Potency read?
Answer: inconclusive: 20 µM [inhibitor, single point]

Question: For `COc1ccccc1N1CCN(C(=O)Cn2cccc2-c2nc(-c3ccc(F)cc3)no2)CC1`, which Potency is on record?
Answer: inconclusive: 10 µM [inhibitor, single point]

Question: Which Potency does the source give for `CCCCNC(=O)CC1Nc2cc(C)c(C)cc2NC1=O` (stereo unspecified) here?
Answer: inconclusive: 11.2 µM [inhibitor, partial curve]

Question: For `COc1ccccc1NC(=O)c1nn(C)c2c1CS(=O)(=O)c1ccccc1-2`, which Potency is on record?
Answer: inconclusive: 1.58 µM [inhibitor, partial curve]

Question: With `CN(C)S(=O)(=O)c1ccc(C(=O)NCCSc2c(-c3ccc(Br)cc3)[nH]c3ccccc23)cc1` as the molecule, how does the Potency read?
Answer: inconclusive: 10 µM [inhibitor, single point]

Question: With `O=C(Cn1nc(Cc2ccncc2)c2ccccc2c1=O)Nc1cccc(C(F)(F)F)c1` as the molecule, how does the Potency read?
Answer: inconclusive: 8.91 µM [inhibitor, single point]

Question: For `CCN(CC)CCN(C(=O)c1ccco1)c1nc2c(C)c(C)ccc2s1`, which Potency is on record?
Answer: inconclusive: 17.8 µM [inhibitor, single point]

Question: With `CC(=O)Nc1ccc(NC(=O)CN2C(=O)CC(c3ccco3)Sc3ccccc32)cc1` (stereo unspecified) as the molecule, how does the “activity, negative = inhibition” value read?
Answer: inactive: 15.9%

Question: With `OCCC1CN(Cc2cn[nH]c2-c2ccc(F)cc2)CCN1Cc1cccs1` (stereo unspecified) as the molecule, how does the Potency read?
Answer: inconclusive: 20 µM [inhibitor, single point]

Question: Which Potency does the source give for `Cc1ccc(C(C)NC(=O)CNC23CC4CC(CC(C4)C2)C3)cc1` (stereo unspecified) here?
Answer: active: 6.31 µM

Question: Which “activity, negative = inhibition” value does the source give for `Cc1cccc(C)c1Nc1c(-c2ccc(N3CCOCC3)cc2)nc2ncccn12` here?
Answer: inactive: -5.89%

Question: With `CNc1nc(N2CC[C@@H]3C[C@H](N4CCOCC4)CC[C@@]3(COC)C2)ncc1F` as the molecule, how does the Potency read?
Answer: inconclusive: 11.2 µM [inhibitor, single point]
